Experimental findings from the supplement of paper PMC3724861 are described below.

Some of the results follow. Bounds are passed on as bounds.

This assay concerns T1, Caupolican (Caup) homeodomain DNA-binding domain.
T1 sequence: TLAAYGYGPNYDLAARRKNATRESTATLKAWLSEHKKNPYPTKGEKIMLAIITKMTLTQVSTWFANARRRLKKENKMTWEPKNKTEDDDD
The assay can be described thus: PBM E-score (8-mer, recovered from the published 9-mer minima) (E-score (dimensionless, -0.5 to 0.5)); Drosophila protein; higher = stronger relative binding preference, active = 0.31 or more. A digest of the protocol:
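Caup's homeodomain DNA-binding domain (residues 214-303) was made by in vitro transcription and translation and applied at 100 nM to custom-designed protein binding microarrays. Each value is an enrichment score that gives relative binding preference for a short DNA word, with higher meaning stronger. The 8-mer values were recovered from published 9-mer scores, each of which was the minimum of its two constituent 8-mer scores. A cutoff of 0.31 marks candidate sites.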
On to CTTAGTGC, for which the “PBM E-score” value was inactive: -0.0352.
The same measure for GAAGGCAC: inactive: -0.111; for CCATGTCA: active: 0.398; for GGCAGCCC: inactive: -0.299.
Under GTATACAC stands inactive: 0.249; under CCTGAACC, inactive: 0.0376.
Under ACAGGCAT stands inactive: 0.0723; under AGGATCGA, inactive: 0.0109; under AGCCGGAG, inactive: -0.17.
For ACTTGCGA, the “PBM E-score” value is inactive: -0.0428.
The same measure for AAGTATAT: inactive: 0.117; for CCGGACCA: inactive: -0.157.
The same measure for ACAAGCCC: inactive: 0.0654.
As to AAACGTGC, the “PBM E-score” value was inactive: 0.0258.
Under CGAATTAA stands inactive: 0.0467.
Under AGCTTCCG stands inactive: -0.202; under CCATGTCG, active: 0.362.
The same measure for ATGGCGTC: inactive: -0.107; for AGTTTATA: inactive: 0.19; for CCCATAAC: inactive: 0.0433.
AGGTAAAG: the “PBM E-score” value was inactive: 0.0737.
Under AATTACTG stands inactive: 0.174; under ACTGCGCA, inactive: -0.105.
For ACAGTTGA, the “PBM E-score” value was inactive: 0.0862.
Under CATGGACC stands inactive: -0.0181.
The same measure for ACCCCATC: inactive: -0.158; for ATCCGACC: inactive: 0.0552.
Under ATCAGTAG stands inactive: 0.125.
For ACATATGC, the “PBM E-score” value was inactive: 0.198.
Under CGAGTATA stands inactive: 0.0699; under TCTTGCAA, inactive: 0.0461.
The same measure for ATATTTTA: inactive: 0.119.
Under CGCTAACA stands inactive: 0.156.
With TGGAGTAA, the “PBM E-score” value was inactive: 0.0245.
Under CGAAATCC stands inactive: -0.0251; under CCCAGGGA, inactive: -0.278; under AACAGCCT, inactive: 0.00139.
The same measure for ATCCTGAC: inactive: 0.0403.
Under ACGTTATC stands inactive: 0.0197.
With AGCACTGA, the “PBM E-score” value is inactive: -0.0101.
The same measure for GCCACCGA: inactive: -0.108; for AGACCGAC: inactive: -0.00849; for AGAGTTGG: inactive: -0.0475.
The same measure for GGTGGCAA: inactive: -0.0972; for CGTCTGAG: inactive: -5e-05; for ATAATTGC: inactive: 0.0527.
Under CAACGTAA stands inactive: 0.146; under CGATAAGA, inactive: 0.0571.
On to CATGTCTC, for which the “PBM E-score” value is active: 0.314.
As for CAAGGTAC, the “PBM E-score” value is inactive: 0.162.
The same measure for CGTTCATC: inactive: -0.0383; for ATTACAGA: inactive: 0.208.
Under AAGAAGTG stands inactive: 0.019; under ATACGTAC, inactive: 0.151.
The same measure for CCCTGGAG: inactive: -0.219.
Consider ATTGTAGG, for which the “PBM E-score” value was inactive: 0.185.
For AGGGGACA, the “PBM E-score” value was inactive: 0.0584.
Under CCAAATTC stands inactive: -0.0349; under ATGACCCA, ≥ 0.0525; under CCCATAGC, inactive: -0.184.
Under CTATATTA stands inactive: 0.168; under CCTACCTC, inactive: -0.19; under TACTTCAA, inactive: 0.0215.
Under CTACTGAA stands inactive: -0.0489; under CGGGCAAG, inactive: -0.19; under CCCCCGTA, inactive: -0.259.
Regarding GTCGGGAA, the “PBM E-score” value is inactive: 0.0947.
On to CCATATTA, for which the “PBM E-score” value was inactive: 0.105.
The same measure for AAATGCAC: inactive: 0.0478; for TATGCCCA: inactive: -0.107.
Under ATCAAGTG stands inactive: 0.0753; under TAGTGTAA, inactive: 0.207; under GGCCTCTA, inactive: -0.17.
The same measure for GAGATAGA: inactive: -0.0381.
For TCCATGGA, the “PBM E-score” value was inactive: 0.0552.
The same measure for AAACCCGA: inactive: 0.00051; for AAGGAAGA: inactive: -0.049; for ACCTGCTG: inactive: -0.0251.
The same measure for CGCGAGAC: inactive: -0.026; for CCCATGTA: active: 0.326; for AGGCATGC: inactive: -0.0249.
The same measure for GTGATTGA: inactive: 0.148; for CGCAAACC: inactive: -0.0612.
Take AAGTGTAC: the “PBM E-score” value was inactive: 0.304.
Under GGTTGAAA stands inactive: 0.0224.
The same measure for AACTTCAG: inactive: -0.0565.
Under AGGAGTTC stands inactive: -0.0161; under GGGCGTAA, inactive: -0.112.
On to CTGGCCTC, for which the “PBM E-score” value was inactive: -0.317.
The same measure for CCTCTAAG: inactive: -0.165; for CCTAAGTC: inactive: -0.13; for AGTGAAAT: inactive: 0.102.
The same measure for ACGGTGGA: inactive: -0.0915.
Under CCTGAACA stands inactive: 0.172.
On to GAGCCCAC, for which the “PBM E-score” value is inactive: -0.209.
Regarding AGGCAGAC, the “PBM E-score” value is inactive: -0.122.
Regarding GACTTCTA, the “PBM E-score” value was inactive: -0.00358.
As for ACTCGACT, the “PBM E-score” value was inactive: 0.0127.
The same measure for ACTATAGG: inactive: 0.0488.
On to CAAAGTAG, for which the “PBM E-score” value is inactive: 0.035.
The same measure for AATCTCCA: inactive: -0.0273.
Under CGGGGGAC stands inactive: -0.287.
The same measure for CATTGGAA: inactive: 0.0314; for ACCATCAG: inactive: -0.00028.
CCCTGAGC: the “PBM E-score” value is inactive: -0.154.
Under ACTTCACC stands inactive: -0.105; under AGCTTATA, inactive: 0.0727.
For the sequence ATTGTACG, the “PBM E-score” value was inactive: 0.203.
The same measure for GTCCAGTA: inactive: 0.0872; for AACACAAT: active: ≥ 0.319.
Turning to GCTATGAA, the “PBM E-score” value was inactive: 0.0275.
Under GAAACTAA stands inactive: 0.00733.
Under ATACACGC stands inactive: 0.275; under ATCGGGTG, inactive: -0.151; under CTGCCCCA, inactive: -0.191.
Under AATCCGCA stands inactive: -0.0689; under CTGGCGTA, inactive: -0.124.
For CTATGGTC, the “PBM E-score” value is inactive: -0.105.
Take AAGGTATC: the “PBM E-score” value is inactive: -0.0367.
The same measure for AGGGCCTA: ≥ -0.09.
The same measure for CTGGCATC: inactive: -0.0567; for ACGCTTTC: inactive: -0.0657; for TCCGGTCA: ≥ -0.0188.
Under AATGTGCT stands inactive: 0.0465; under GATCATGA, inactive: 0.0824.
CTCATCAC: the “PBM E-score” value is inactive: -0.0312.
On to GCTGCATA, for which the “PBM E-score” value was inactive: 0.0163.
Under CACCTTGC stands inactive: 0.00581; under TGGCTACA, ≥ 0.145; under AAGGGAGA, inactive: -0.0421.
Regarding CAAACAAA, the “PBM E-score” value is inactive: 0.196.
Under AAGTGCTA stands ≥ 0.0785.
Under CGACGGTC stands inactive: -0.132; under GGTTGGAC, inactive: -0.0858; under CAAACAGC, inactive: 0.168.
The same measure for AGCGTCGA: inactive: 0.017; for AATGGCCA: inactive: -0.155.
As for AGCTTTCA, the “PBM E-score” value was inactive: -0.00247.
Under ACCCCGAT stands inactive: -0.182; under CGCCCGAG, inactive: -0.215.
Turning to ATAACATA, the “PBM E-score” value is active: 0.356.
The same measure for CTGGGTAA: inactive: -0.0481; for ACTCCTAA: inactive: -0.0226.
